# Results published in publication PMC4336329 (PLoS ONE, 2015).
# Out of some 310,000 compounds screened, about 2,200 (0.71%) showed an effect of 50% or more. Effects have a minus sign here. The list shows a part of the results.
# Biological target: human ether-à-go-go-related gene (hERG) potassium channel (human, UniProt Q12809)
# Assay: primary screen, population patch clamp on CHO cells stably expressing hERG
# Chain of human ether-à-go-go-related gene (hERG) potassium channel (Q12809 whole entry, looked up): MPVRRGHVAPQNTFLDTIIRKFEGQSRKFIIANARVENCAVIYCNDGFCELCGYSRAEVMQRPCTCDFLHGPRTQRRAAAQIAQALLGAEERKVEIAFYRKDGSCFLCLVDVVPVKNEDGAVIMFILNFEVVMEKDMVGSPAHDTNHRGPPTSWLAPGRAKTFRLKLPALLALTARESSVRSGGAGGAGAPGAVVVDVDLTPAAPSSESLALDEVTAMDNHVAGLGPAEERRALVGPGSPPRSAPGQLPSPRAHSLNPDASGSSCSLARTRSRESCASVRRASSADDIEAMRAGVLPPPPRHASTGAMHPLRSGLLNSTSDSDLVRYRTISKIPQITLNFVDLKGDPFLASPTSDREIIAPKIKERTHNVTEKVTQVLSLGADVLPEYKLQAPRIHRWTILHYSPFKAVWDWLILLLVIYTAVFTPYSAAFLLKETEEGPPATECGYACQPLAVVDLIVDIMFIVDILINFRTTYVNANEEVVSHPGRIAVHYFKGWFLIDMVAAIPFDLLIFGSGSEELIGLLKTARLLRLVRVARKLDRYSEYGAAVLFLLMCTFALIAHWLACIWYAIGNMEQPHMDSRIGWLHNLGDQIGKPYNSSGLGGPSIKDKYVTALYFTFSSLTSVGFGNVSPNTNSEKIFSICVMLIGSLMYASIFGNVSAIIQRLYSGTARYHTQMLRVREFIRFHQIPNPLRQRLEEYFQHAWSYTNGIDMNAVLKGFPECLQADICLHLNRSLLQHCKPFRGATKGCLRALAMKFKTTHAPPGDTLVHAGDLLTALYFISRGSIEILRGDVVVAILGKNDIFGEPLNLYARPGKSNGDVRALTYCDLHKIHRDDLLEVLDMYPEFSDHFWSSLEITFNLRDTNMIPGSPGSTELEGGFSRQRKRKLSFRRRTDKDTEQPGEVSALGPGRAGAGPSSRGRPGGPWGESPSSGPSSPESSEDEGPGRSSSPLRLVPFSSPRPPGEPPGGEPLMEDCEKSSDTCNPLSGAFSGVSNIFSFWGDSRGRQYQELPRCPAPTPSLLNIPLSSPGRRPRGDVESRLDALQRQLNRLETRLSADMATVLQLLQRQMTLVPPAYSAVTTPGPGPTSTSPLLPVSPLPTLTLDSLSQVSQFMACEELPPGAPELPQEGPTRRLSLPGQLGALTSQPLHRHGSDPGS
row,Structure (SMILES),"hERG current change (%, negative = inhibition) at 1uM [%]"
1,c1ccc(C2c3[nH]c4ccccc4c3CCN2Cc2cccn2-c2ccccn2)nc1 (stereo not shown),-4.99
2,CCOC(=O)[C@@]12C(=O)C(=O)N[C@]1(c1ccccc1)C1OCCCC12 (stereo partly shown),3.58
3,COc1ccc(NC(=O)CSc2nnnn2C)c([N+](=O)[O-])c1,12.2
4,COc1ccccc1/C=N/Nc1nncc2ccccc12,18.1
5,Cc1c(C(=O)OCC2CCCO2)[nH]c2c1C(=O)CC(c1ccco1)C2 (stereo not shown),7.54
6,O=C(/C=C/c1ccco1)Nc1ccccc1C(=O)O,17
7,CCOC(=O)c1cnc2ccc(Br)cc2c1NCCCN1CCOCC1,-0.7
8,CCCS(=O)(=O)N1CCCC(C(=O)NCCCN2CCN(c3ccc(F)cc3)CC2)C1 (stereo not shown),-28.6
9,O=C(CN(C(=O)c1nsc(Cl)c1Cl)c1cccc(F)c1)NC1CCCC1,15.3
10,CC(c1ccccc1)n1cc(C(=O)NCc2cccnc2)nn1 (stereo not shown),16
11,O=C(Nc1ccc2nc(N3CCOCC3)sc2c1)c1ccccc1,2.08
12,CCCC(=O)Nc1ccc(C(=O)NCC(=O)OCC)cc1,12.1
13,O=C(CSCCOc1ccccc1)NCc1ccncc1,8.57
14,CCOc1cc(/C=N/NC(=O)CNc2ccc(C)cc2)ccc1OC(=O)c1ccccc1,-0.419
15,Fc1ccc(CNC(=S)Nc2ccc(Cl)cc2Cl)cc1,13.2
16,O=C1CCCN1S(=O)(=O)c1ccc(F)cc1,7.6
17,Cn1c(C(=O)N2CCCC(Nc3ccc(F)cc3)C2)cc2ccccc21 (stereo not shown),10.9
18,Cc1ccc(S(=O)(=O)n2c(=O)oc3ccccc32)cc1,7.35
19,Cc1cc(NC(=O)CSc2ccc3nnc(-c4ccccn4)n3n2)no1,10
20,Cc1cc(C)n(S(=O)(=O)c2cc(C)c(C)cc2C)n1,8.84
21,Cc1cc(C)c(S(=O)(=O)N(CC(=O)N2CCCC2)C2CCCCC2)c(C)c1,-13.5
22,COC(=O)C1(Cc2cc(-c3ccc([N+](=O)[O-])cc3)no2)CCN(C(=O)OC(C)(C)C)CC1,14.1
23,O=C(O)CCn1c(SCc2ccccc2)nc2ccccc21,7.33

row,Structure (SMILES),"hERG current change (%, negative = inhibition) at 1uM [%]"
1,CC(C)(C)c1nc(N2CCN(C(=O)c3ccco3)CC2)c2nnn(Cc3ccccc3)c2n1,13.8
2,O=C(Nc1ccccn1)c1csc2c1CCCC2,17.4
3,Cc1ccc(-c2csc(=S)n2CC(=O)OCC(=O)NC(C)C(C)C)cc1 (stereo not shown),1.6
4,COC(=O)CCCCCCCCC(=O)Nc1nc2ccccc2s1,12.6
5,CCOC(=O)CSc1nnc(CNC(=O)c2ccc(OC)c(OC)c2)n1C,5.33
6,CCN(CC(=O)Nc1ccc2c(c1)OC(F)(F)O2)Cc1nc2ccccc2c(=O)[nH]1,0.0926
7,O=C1c2cccc(OCC(=O)N3CCCc4ccccc43)c2CCN1Cc1cccnc1,0.823
8,CCOc1ccccc1-n1c(=O)c2ccccc2c2ccccc2c1=O,10.3
9,Cc1cc(C)nc(SC2c3cccc4cccc(c34)C2NS(=O)(=O)c2ccccc2)n1 (stereo not shown),4.57
10,COc1cccc(CC(=O)Nc2nc(C)cs2)c1,0.301
11,CCS(=O)(=O)N1CCN(C(=O)CCC2CCCC2)CC1,1.24
12,COc1ccccc1N/C(N)=N/c1nc(C)cc(C)n1,-2.38
13,CCOc1ccc(CCNC(=O)CCNS(=O)(=O)c2ccc(Br)cc2)cc1OCC,7.4
14,CCSc1nnc(NC(=O)CCN2C(=O)C3CCCCC3C2=O)s1 (stereo not shown),-0.783
15,CC(=O)Nc1cccc(Oc2ncnc3scc(-c4ccc(C)cc4)c23)c1,8.55
16,O=S(=O)(c1ccccc1)c1nc(-c2ccco2)oc1Nc1ccccc1,6.9
17,COc1ccc(C)cc1S(=O)(=O)NC1CCCCC1,-2.7
18,S=c1nc(-c2ccc(Br)cc2)oc2c1CCCC2,23.4
19,O=C(COc1cc2oc(=O)cc(-c3ccccc3)c2cc1Cl)NC(Cc1c[nH]c2ccc(O)cc12)C(=O)O (stereo not shown),10.7
20,Cc1ccc2c(c1)cc1c(=O)[nH]ncn12,11.5
21,CCOC(=O)c1[nH]c2ccccc2c1NC(=O)c1nonc1C,-13.4
22,CC(C)[NH+]1CCN(C(=O)c2ccc(NC(=O)c3ccc(Br)o3)cc2)CC1.O=C(O)C(F)(F)F,4.96
23,Cn1c(C(=O)NCCCN2CCOCC2)cc2c(=O)n(C)c3ccccc3c21,6.12
